PubChem BioAssay AID1745853 (National Center for Advancing Translational Sciences (NCATS), 2022)
The other results are listed elsewhere or left out. These are further read-outs of the screen, such as a control signal, another cell line or another target. No call is given for them.

How the values were obtained:
Assay in all cases: Primary Screen for Target Class Profiling of Small Molecule Inhibitors of Methyltransferases
[1] = target: Glycine N-methyltransferase (Homo sapiens) (UniProt Q14749); conditions: purified enzyme, MTase-Glo SAH luminescence; measured here: GNMT inhibition; at 40 µM; stronger effect = lower value
Procedure, shortened: (§1)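 Each enzyme was assayed with SAM and its substrate. SAH formation detected by MTase-Glo luminescence; single-point 40 uM screen[…].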

[2] = target: Guanidinoacetate N-methyltransferase (Homo sapiens) (UniProt Q14353); conditions: purified enzyme, MTase-Glo SAH luminescence; measured here: GAMT inhibition; at 40 µM; stronger effect = lower value
Procedure, shortened: as §1

[3] = target: Histamine N-methyltransferase (Homo sapiens) (UniProt P50135); conditions: purified enzyme, MTase-Glo SAH luminescence; measured here: HNMT inhibition; at 40 µM; stronger effect = lower value
Procedure, shortened: as §1

[4] = target: Nicotinamide N-methyltransferase (Homo sapiens) (UniProt P40261); conditions: purified enzyme, MTase-Glo SAH luminescence; measured here: NNMT inhibition; at 40 µM; stronger effect = lower value
Procedure, shortened: as §1

[5] = target: Phenylethanolamine N-methyltransferase (Homo sapiens) (UniProt P11086); conditions: purified enzyme, MTase-Glo SAH luminescence; measured here: PNMT inhibition; at 40 µM; stronger effect = lower value
Procedure, shortened: as §1
On the % scale 0 is the no-effect control and ±100 the full control effect.

Row | Compound | activity change, negative = inhibition [1] [%] | activity change, negative = inhibition [2] [%] | activity change, negative = inhibition [3] [%] | activity change, negative = inhibition [4] [%] | activity change, negative = inhibition [5] [%]
1 | CC(C)Cc1cc(CN2CCC(CO)(CN3CCCC3)CC2)[nH]n1 | -1.48 | -7.2 | -6.77 | -3.33 | -2.91
2 | Cc1ccc(S(=O)(=O)n2ccc(-c3c(-c4ccc(Cl)cc4)noc3C)n2)cc1 | -10.2 | -8.8 | -0.129 | -24.7 | -4.29
3 | CCCC1c2cccn2CCN1C(=O)Nc1cccc(C)c1C (stereo not given) | 1.66 | 1.15 | -16.5 | 0.858 | 4.4
4 | C[C@@H](NCCc1ccc(O)cc1)[C@@H](O)c1ccc(O)cc1 | 8.7 | 6.04 | -36 | -10 | -6.08
5 | COC(=O)c1ncn2c1C(=O)N(c1ccc(OC)c(OC)c1)C(C)(C(=O)NC1CCCC1)C2 (stereo not given) | 3.91 | 4.34 | -4.27 | 1.66 | -0.407
6 | CC1(C(=O)NC2CCCCCCC2)Cn2c(cc3occc32)C(=O)N1Cc1ccccc1 (stereo not given) | 0.537 | 2.21 | 8.17 | -10.1 | 2.35
7 | CNC1CCC(N(Cc2cccc(-c3ccncc3)c2)C(=O)c2sc3c(F)ccc(F)c3c2Cl)CC1 (stereo not given) | -6.45 | 6.08 | -20.2 | -79.8 | -3.3
8 | CC(C)c1cc2c(c(O)c1O)[C@@]13CCCC(C)(C)C1[C@@H](O)[C@@H]2OC3=O (stereo not given in full) | -1.07 | 4.17 | 7.54 | -11.2 | 2.61
9 | CC(C)OCCCNC(=O)C1(C)Cn2c(cc3ccccc32)C(=O)N1Cc1ccccc1Cl (stereo not given) | 6.85 | 0.995 | 7.86 | 0.103 | 4.9
10 | CC1(C(=O)NC2CCCCC2)Cn2c(cc3ccccc32)C(=O)N1Cc1ccccc1 (stereo not given) | -9.8 | -1.71 | -5.58 | -14.1 | -4.71
11 | CC(C)OCCCn1c(=O)c2ccccc2n2c(-c3cc(Cl)ccc3O)nnc12 | -7.9 | 5.87 | -2.08 | 4.6 | -6.18
12 | CN1C[C@H]2CN(C(=O)c3cccnc3)CCN2C1=O | -0.332 | 0.016 | 1.3 | 1.06 | 4.84
13 | CCCN1C(=O)c2c(C(=O)NCCc3cccs3)ncn2CC1(C)C(=O)NC1CCCC1 (stereo not given) | 1.51 | 0.4 | 3.41 | 3.5 | 4.58
14 | CCCn1c(=O)c2ccccc2n2c(=O)n(CC(=O)Nc3ccc(F)cc3)nc12 | 1.63 | 0 | 7.14 | -1.73 | 3.31
15 | CC(C)(C)c1cc2n(n1)CC(C)(C(=O)NC1CCCCC1)N(Cc1ccccc1F)C2=O (stereo not given) | -4.08 | 1.7 | 0.682 | 1.89 | -2.16
16 | CCOc1ccc(CCNC(=O)Cn2ccc3cc(S(=O)(=O)N4CCC(C)CC4)ccc32)cc1 | 6.88 | 0 | 6.03 | 1.76 | 1.24
17 | CC1(C(=O)NC2CCCCC2)Cn2c(cc3sccc32)C(=O)N1CCCN1CCOCC1 (stereo not given) | 4.05 | 0.748 | 4.13 | 8.67 | 1.61
18 | CNC(=O)c1cc(Oc2ccc(NC(=O)Nc3ccc(Cl)c(C(F)(F)F)c3)cc2)ccn1 | -5.72 | -14.4 | 3.19 | -36 | -5.09
19 | COc1cc2nc(C3CC3)nc(N3CCN(c4ccccc4OC)CC3)c2cc1OC | -9.15 | 3.7 | -13.3 | -30.5 | -4.83
20 | CNC(=O)c1ccccc1Nc1cc(Nc2ccc(N3CCOCC3)cc2OC)ncc1C(F)(F)F | -12.8 | -12 | -3.77 | -32.6 | -25.8
21 | COc1cccc(-c2cc(-c3cccs3)nc3c(C)noc23)c1 | -4.27 | -2.29 | -1.76 | -1.75 | -5.71
22 | C=C1CCC2C(C)(C(=O)OC)CCCC2(C)C1CCC(C)CC(=O)O (stereo not given) | 0 | -0.68 | 0.996 | -25.6 | -2
23 | CCc1cccc(N2C(=O)Cn3cccc3C2C(=O)NC2CCC(C)CC2)c1 (stereo not given) | -0.445 | 0 | 1.2 | 7.39 | -1.88
24 | O=C(Cn1ccc2cc(S(=O)(=O)N3CCCC3)ccc21)NCCc1ccccc1Cl | -0.422 | 2.6 | 0.254 | -6.83 | -19.4
25 | O=C(CCc1nnc2n(Cc3ccccc3Cl)c(=O)c3ccccc3n12)NCCCN1CCOCC1 | -6.99 | 0.384 | -2.42 | 13.4 | 3.58
26 | O=C(Nc1cccc(C(=O)Nc2ccc(S(=O)(=O)O)c3cc(S(=O)(=O)O)cc(S(=O)(=O)O)c23)c1)Nc1cccc(C(=O)Nc2ccc(S(=O)(=O)O)c3cc(S(=O)(=O)O)cc(S(=O)(=O)O)c23)c1 | -8.03 | 15.5 | 14 | -3.48 | 0.629
27 | COc1cc2c(c(OC)c1CC=C(C)C)C[C@H](c1ccc(O)c(CC=C(C)C)c1O)CO2 | -3.38 | -20.6 | -0.456 | -29.7 | -3.26
28 | Cc1ccc(S(=O)(=O)Cc2nc(-c3ccc(C(=O)NCc4cccnc4)cc3)oc2C)cc1 | -18.2 | -7.5 | -14.2 | -26.6 | -21.2
29 | O=C(c1cncs1)N1CCc2c(cc(-c3cccc(F)c3)c(=O)n2CCN2CCCCC2)C1 | -5.65 | -8.21 | -5.66 | -8.16 | 3.9
30 | O=C(N[C@H]1CCN2C(=O)c3ccccc3NC(=O)[C@H]12)c1cccc(F)c1 | -3.61 | -4.38 | -2.98 | -9.38 | -6.65
